The results in this text go back to the supplement of paper PMC6135742.

Counter-ions that a name gives are not always drawn. ± gives the standard deviation of the averaged measurements. In all, about 2,600 compounds were measured (“MBP+ mature oligodendrocyte number relative to DMSO vehicle control”: median about -0.34, highest 2% from about 13 on). This is one part of the list.

The assay has as its system jimpy (Plp1 jimpy) mouse iPSC-derived oligodendrocyte progenitor cells. Nature of the assay: MBP+ mature oligodendrocyte number relative to DMSO vehicle control (SDs above negative control mean); higher = more surviving jimpy oligodendrocytes (rescue). The settings on record: 10 µM; 3 days. How it is done: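 Primary phenotypic screen of >3,000 bioactive compounds (Selleck L1700 and Sigma LO1280 libraries) at a single dose of 10 µM. Compounds were added to jimpy (Plp1 mutant) mouse iPSC-derived OPCs at the start of thyroid hormone-induced oligodendrocyte differentiation, one well per compound in 384-well plates. After 3 days cells were stained for MBP, Sox10 and DAPI and imaged with an Operetta system. MBP+ oligodendrocyte number and total cell number were expressed as the number of SDs above the mean of the DMSO negative control on the same plate (n=16 control wells per plate). Hits were defined as >=4 SD for oligodendrocytes and >=2 SD for total cells.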
Consider `N=C(N)NN` [Aminoguanidine hydrochloride], for which the “MBP+ mature oligodendrocyte number” value was -0.551. With `N=C(N)NN` [Aminoguanidine hemisulfate] the figure was -1.3; with `CC(C)N(CCC(C(N)=O)(c1ccccc1)c1ccccn1)C(C)C` (centres undefined) [Disopyramide], 2.18. With `CC(C)N(CCC(C(N)=O)(c1ccccc1)c1ccccn1)C(C)C` (centres undefined) [Disopyramide phosphate] the figure was 1.13; with `O=[N+]([O-])/C=C/c1ccc2c(c1)OCO2`, -5.59; with `CC(Cc1ccc(OCC(=O)O)cc1)NCC(O)c1cccc(Cl)c1` (centres undefined), -0.825. With `CC(C)=CCOc1c2occc2cc2ccc(=O)oc12` [Imperatorin] the figure was 2.02; with `C=CCN1C[C@H](C)N([C@H](c2ccc(C(=O)N(CC)CC)cc2)c2cccc(OC)c2)C[C@H]1C`, 8.68; with `O=[N+]([O-])c1cc(O)c(O)c([N+](=O)[O-])c1` [3,5-Dinitrocatechol], 0.869.

Take `CN[C@@H]1C[C@@H](c2ccc(Cl)c(Cl)c2)c2ccccc21` [Indatraline hydrochloride]: the “MBP+ mature oligodendrocyte number” value was -3.77. As for `Fc1cc(F)c2c(c1)[C@H]1C=CC[C@H]1C(c1cccnc1)N2` (some centres undefined) [Golgicide A], the “MBP+ mature oligodendrocyte number” value is -6.18. With `CN1[C@@H]2CC[C@H]1C[C@@H](OC(=O)[C@H](CO)c1ccccc1)C2` [Hyoscyamine], the “MBP+ mature oligodendrocyte number” value is 0.819. `CN1[C@@H]2CC[C@H]1C[C@@H](OC(=O)[C@H](CO)c1ccccc1)C2` [L-Hyoscyamine]: the “MBP+ mature oligodendrocyte number” value was determined as 0.712.

For `Nc1nc(N)nc(NC2CC2)n1` [Cyromazine], the “MBP+ mature oligodendrocyte number” value worked out at 3.62.

Take `O=C(N[C@H]1CN2CCC1CC2)c1cc2ccoc2cn1`: the “MBP+ mature oligodendrocyte number” value came out at 0.813. Turning to `C=C(C)[C@H]1CN[C@H](C(=O)O)[C@H]1CC(=O)O` [Kainic acid], the “MBP+ mature oligodendrocyte number” value is 0.617. With `Cc1cc(O)ccc1Cl` [Chlorocresol] the figure was 0.407; with `O=C(N[C@H]1CN2CCC1CC2)c1ccc(Cl)cc1`, 0.0294. With `O=[N+]([O-])c1ccc2nc(N3CCNCC3)ccc2c1` [Quipazine, 6-nitro-, maleate] the figure was -2.43; with `N#Cc1ccc(N2CCN(C(=O)COc3ccc4[nH]cc(CCN)c4c3)CC2)cc1` [Donitriptan monohydrochloride], -0.648. Turning to `c1cc2c(cc1[C@H]1OC[C@H]3[C@@H]1CO[C@@H]3c1ccc3c(c1)OCO3)OCO2` [Sesamin], the “MBP+ mature oligodendrocyte number” value was determined as 0.283. Take `CC(C)(C)c1cc(C(C)(C)C)c2c(c1)C(O)(C(F)(F)F)C(=O)O2` (racemic): the “MBP+ mature oligodendrocyte number” value was found to be 0.182. `CCCCC/C=C\C/C=C\C/C=C\C/C=C\CCCC(=O)NCc1ccc(O)c(OC)c1` [Arvanil]: the “MBP+ mature oligodendrocyte number” value was < -3.34. For the compound `O=c1[nH]c2ccccc2n1CCCN1CCC(n2c(=O)[nH]c3cc(Cl)ccc32)CC1` [Domperidone], the “MBP+ mature oligodendrocyte number” value is -1.87 ± 0.2.
